# About 540 (0.36%) of roughly 150,000 compounds showed an effect of 50% or more. The list shows a part of the results.
# Tested on: Plasmodium falciparum
# Experiment: Primary screen in NF54 nanoGlo assay, in single point, at 2uM, 72h; a lower Z score goes with more inhibition
# Assay type: functional, Erythrocyte
# Conditions: timepoint 72 hour
Structure (SMILES),% Inhibition,Z score
C/C(=C\c1ccccc1)C(=O)N1CCCc2ccccc21,-2%,0.31
O=C([C@H]1CCS(=O)(=O)C1)N1CCc2[nH]nc(C3CC3)c2C1,-5%,0.53
CC(C)CN1N=C(C(=O)N2CCOCC2)S(=O)(=O)c2ccc(Cl)cc21,-3%,0.37
Cc1nn(C)c(C)c1CCC(=O)N(C)Cc1cc2cc(F)ccc2[nH]1,-14%,2.03
CCOC(=O)c1nc(N2CC(CO)(CO)C2)cc(C(C)(C)C)n1,-14%,1.39
CN1CCC(N(CCc2ccccc2)C(=O)c2cccc3cnccc23)CC1,-4%,0.65
COC(=O)NCCNC(=O)[C@@]1(N(C)C)COc2ccccc2C1,5%,-0.63
Cc1nccc(NCCc2ncn(C)n2)n1,-11%,0.94
CCCN(CCC)S(=O)(=O)NCc1ccnc(OCc2ccc3c(c2)OCO3)c1,-3%,0.23
NC(=O)c1ccc2c(c1)CCCN2C(=O)C1CC1c1cccnc1 (stereo unspecified),-8%,1.13
COc1cc(NC(=O)c2cc(-c3ccccc3)nc3ccccc23)c(OC)cc1NC(=O)c1ccccc1,0%,0.06
C#Cc1cc(F)c(NC(=O)NCCNC(C)=O)c(F)c1,7%,-1.11
CC(=O)c1sc(NC(=O)c2cc(O)nc3ccccc23)nc1-c1ccccc1,1%,-0.11
COCCCN(C)C(=O)Nc1cccc(C)n1,-5%,0.67
CCCn1c(=O)c(C(=O)NCc2ccc(F)cc2)nn(-c2cccc(C)c2)c1=O,5%,-0.66
Cn1cnnc1-c1ccnc(NCc2ccc(Cl)cc2)c1,-11%,1.73
COc1ccc(C(=O)N2CCCCCCNC(=O)[C@@H]3C[C@@H](c4nc(-c5cnccn5)no4)C[C@@H]32)cc1F,-5%,0.63
COc1ccccc1Oc1cc(N2CCN(C(=O)C(C)(C)C)[C@@H](C)C2)ncn1,-10%,1.39
CC(C)[C@H]1CN(c2nc3c(cc2C(N)=O)CCC3)C[C@@H]1C(=O)O,-9%,1.15
CCn1cc(C(=O)N[C@@H](C)CNc2ccccc2)cn1,-2%,0.17
O=C(Nc1cccc(F)c1)Nc1ccnn1C1CCN(C[C@H]2CCCO2)CC1,-6%,1
CN(C)c1ccc(CNC(=O)c2nccnc2-c2nc3ccccc3s2)cc1,-10%,1.7
Cc1[nH]nc(CCC(=O)N2CCC(F)(F)CC2)c1C,-2%,0.41
CC(=O)N1CC[C@H](C(=O)Nc2ccncc2F)C1,-5%,0.58
O=C1Nc2ccc(F)cc2C12CCNC2c1ccc2c(c1)OCCO2 (stereo unspecified),31%,-3.54
CN(C)S(=O)(=O)CCC(=O)Nc1nc(C2CCN(C(=O)OC(C)(C)C)CC2)cs1,-4%,0.43
COC(=O)c1cnc(N2CCN(c3nccs3)CC2)c(S(=O)(=O)N2CCOCC2)c1,-6%,0.94

Structure (SMILES),% Inhibition,Z score
CC(=O)Nc1nc(CNC2CCOC2c2ccccc2)cs1 (stereo unspecified),-9%,1.29
CC[C@]1(N2CCN(C(=O)Nc3cccc(F)c3C)CC2)CCN(C(=O)C(C)C)C1,4%,-0.36
O=C(NCc1cccs1)Nc1ccccc1NC(=O)c1cccc(Cl)c1,-11%,1.69
O=c1[nH]c(=O)n(Cc2cc(Cl)cc3c2OCOC3)cc1Cl,43%,-5.49
COc1ccc(CN2CCC(N(c3ccc(OC)c(OC)c3)S(=O)(=O)c3ccc(F)cc3)CC2)cc1,3%,-0.53
O=C(c1cccc(NS(=O)(=O)c2ccc3c(c2)OCCO3)c1)N1CCN(c2cnccn2)CC1,10%,-1.31
Cc1c(NC(=O)c2cccc(C(F)F)c2F)cnn1[C@H]1CCOC1,-15%,2.69
O=C(Cc1csc(-c2cccnc2)n1)N[C@H](c1ccccc1)C1CC1,-44%,5.19
Cc1ccccc1CN1CCCN(C(=O)C2(C#N)CCCC2)CC1,-3%,0.24
CN(Cc1nccn1C)C(=O)NC[C@@H](c1ccc(F)cc1)N1CCCC1,-22%,2.54
O=C(Cn1nnc(-c2ccc3c(c2)OCO3)n1)N1CCOCC1,-3%,0.42
CN(CC(=O)NC1CC1)C(=O)c1c[nH]c(C(F)(F)F)c1,-7%,1.23
Cc1cc(NC(=O)C2OC(C)CC2C)c(C)c(C)c1O (stereo unspecified),-12%,1.87
CCN(CC)CCNCc1cccc(Cl)c1Cl,-2%,0.28
C[C@@H](Cc1ccsc1)N(C)S(=O)(=O)Cc1ccon1,-8%,1.04
CCc1cccc(NC(=O)C(=O)c2ccc[nH]2)c1,-13%,1.2
O=C(NCCn1c(=O)[nH]c2ccccc21)N1CCOCC(F)(F)C1,-5%,0.81
O=C(c1ccc(N2CCCC2=O)cc1)N1CCC(c2ccccn2)CC1,-2%,0.38
CC(C)(C)OC(=O)N1CCC2(CC1)CCN(c1cnccn1)CC2,-3%,0.33
Cc1nc(N2CC[C@H](c3ccccc3Cl)C2)c2nc(C)oc2n1,-1%,0.16
Cc1cc(NC(=O)C(C)(C)c2ccc(Cl)cc2F)nc(=O)[nH]1,3%,-0.43
Cc1ccncc1C(=O)N(CCN1CCOCC1)C1CCOCC1,-4%,0.71
CCCC[C@H](NC(=O)c1ccccc1N1CCC(=O)NC1=O)c1cccnc1,3%,-0.54
Cc1nn(C)cc1[C@H](C)NC(=O)C1CCN(c2cn[nH]c(=O)c2)CC1,3%,-0.52
O=C1COc2ccc(C(=O)N3CCc4sccc4C3)cc2N1,-8%,1.17
CO[C@@]12CC[C@H](O)C[C@@H]1N(CCc1nc3ccc(C)cc3[nH]1)CC2,-8%,0.84
